Experimental data taken from the supplement of paper PMC12632987.
Whole data set: some 1,800 sequences, median “median log2 fold change of GCK-ALFA target abundance (FLAG IP / Myc IP barcode read proportion)” near 0.14, cut for the lowest 2% near -0.84. This is one part of the list.

T1: TRAF2, Q12933
T1 chain: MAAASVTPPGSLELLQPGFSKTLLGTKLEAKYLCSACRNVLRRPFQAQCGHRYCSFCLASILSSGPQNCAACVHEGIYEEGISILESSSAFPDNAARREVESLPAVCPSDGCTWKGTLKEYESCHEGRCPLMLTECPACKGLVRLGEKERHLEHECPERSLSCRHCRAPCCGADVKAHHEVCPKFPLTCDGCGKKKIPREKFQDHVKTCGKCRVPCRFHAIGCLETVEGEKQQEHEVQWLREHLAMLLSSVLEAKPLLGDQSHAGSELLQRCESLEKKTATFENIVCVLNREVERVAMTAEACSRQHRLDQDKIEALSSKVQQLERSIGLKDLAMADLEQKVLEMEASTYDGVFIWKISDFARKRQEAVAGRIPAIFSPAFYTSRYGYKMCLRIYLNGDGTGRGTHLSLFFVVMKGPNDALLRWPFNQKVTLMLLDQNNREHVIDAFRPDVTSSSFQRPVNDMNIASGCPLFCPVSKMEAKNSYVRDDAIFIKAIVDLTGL

B1: traf2_out_6_156_2404 (protein)
chain: KVEEILEKALKEIEELVKKLSEASEEKKISYISKIAGTFYRALQELREAGASVEELKEFGEKVNKKLKELLDKYKLPEDIKNLILSSINAVFDVALAEAK
B2: traf2_out_17_162_1634 (protein)
chain: AEVEERRERLERRLEELEKRLKELREKLKEIDKKSKEELTDLIVEASELKREALLLIQEIEALEGEIPPEERERLLRRAEEIAEEAQRIANAFYKKLEEL
B3: traf2_out_20_38_2041 (protein)
chain: SPEEEERRQIEEDVRLANEALDEAEAKLAEWQAKGLSLDEIAEKVKEEIKKAFEEAGLEDLVPEYLEKIDLVKDSPDALRLITRILARALTKVRRKKREK
B4: traf2_out_17_162_1480 (protein)
chain: AALEAELAKLEAELKKLEKKLKELKEKTKNLEKMSKEELTDLLVEASEARREALELAERIRALEPLIGAERAGKLKEEAEKIAEELQKIANKIYKELEKK
B5: traf2_out_9_108_2584 (protein)
chain: MSEEEKLDEIFEKVKELALEFLKEVDLSPELREDLEKAIEQAEKLYKEGLKETAIILLAIDLATIASKVGDEVVEEVLERLKEIDPRAYAAARRRVELLK
B6: traf2_out_17_35_1757 (protein)
chain: SAEEEALRKALSEAHDKADAEADALRAKLEAAAADPAAFEKTFNAVVEELEKRANNPTALAYIEAAKEARAAGDRDAAIAALERAIRAIILSEKYKEVNA
B7: traf2_out_6_156_2408 (protein)
chain: MVEKIKEEALKKIKKYIEELSKASEEKKIKYISKIAGTVYKALQKLLEAGASLEEIKEFAKEILEEIEKYLKEAGLDEKTINLVLSSLTAVFNVAIEEAK
B8: traf2_out_17_178_1739 (protein)
chain: SKEELLKKISELADKRLDVSKDAMDTIKARLEAEGVLTPELAAKLDEVAKNSNLYAFEEVANEAIARSSSKAELTALRDETVAKLRELNKEIQEAVNKLE
B9: traf2_out_17_162_1653 (protein)
chain: SALEERLAALRARLEELRKETERLKKLLEKIDEYSKEELSDYIVEASEVKRRAREAIQEIEALAPLLDPEEAAALRAELEKIIEEAQRIANEFLKKYEAL
B10: traf2_out_13_95_1229 (protein)
chain: SAEANEKLRKISNEMLDRAEAIVDALEARLAPHPETAPDLAAIRAALRNRGITQAIAVLRAAAAAHPAVAALYEAAAAELEKIRRDAGKKVAEIDKEAAA
B11: traf2_out_20_3_2238 (protein)
chain: EELKKKAEEALKKAEELLKEAAPLLPAEDAAALEKKLKEAKKYFETDYKDALVELSELRRAALAAAERARAAGDEDTAALLEELADEVNKAMHYVYLIIE
B12: traf2_out_20_3_2066 (protein)
chain: KELEEELKKELEKAIALLKEAAKAADEETAKKLKELIKRLKASEELSYEDRLVELSEIRRELLELAEKAKKEGKEELAALLEKAADALNKAMQLTYEIIE
B13: traf2_out_20_3_2171 (protein)
chain: SELEKELKEEKEKALKILKEAAKAADKETAKKIKELIKRLKESEELSVDDRLVEVSEIRREVLELAEAARKAGDEKLAKLLEEAAEALNRAAQLLYKISQ
B14: traf2_out_13_95_1154 (protein)
chain: SKELAEKIMEIADKMLDKSKEILKELLEIAKKKGKLEEEVQEALYLAETRSINEAIHKLKELAKKYPEFKEELEKAIKELEELKREAGKEVAKLIKEEKE
B15: traf2_out_11_155_742 (protein)
chain: EEKKKLLQEMNDKIMELFEKAREEALKIAKEAAEKHPEHKEEIEKKIEETKGFSYRSFILSLIELFKKLGLEEEAKKLEELLEKTQKEANEIVKETEKKL
B16: traf2_out_16_177_1456 (protein)
chain: ELDRVMDRLVILSHLRRAALLIVEDNSPEAEEHLARAREEAEAAGDEEGLALADRIEELAAQNTPEALAQLKALAAEAQRRAQELADEAERLIAERAAAE
B17: traf2_out_20_38_2026 (protein)
chain: SMEEEEEKKLEELIKVAQEAYDEAEKKIEELKKEGKSIEEIAEIAKEEIERILSEEGLEEEKEELIEEVDLVLDSPDAERLIARILARAVALAHQKRLEK
B18: traf2_out_17_162_1647 (protein)
chain: AEVERRLEELERLLRELEERVRELEEKAKNLESLSKSELSDLIVEASEIKRRALEAAEELRELREELPPERYERLLRRLEEVVERANRIAQLFYKEYEKK
B19: traf2_out_14_17_1291 (protein)
chain: DIIEKLEEILKTAKELAKKYPELKLELTQLERKAESALVLAEMYEEDPSYKPELIQGLKNLIKLAKEVAEKLKPISAEAVKKLEEMEETAKEILKEVEAE

Molecular target: T1, TRAF2, Q12933
Assay: median log2 fold change of GCK-ALFA target abundance (FLAG IP / Myc IP barcode read proportion) (log2 ratio); each designed protein is fused to an ALFA-tag nanobody in HEK293 cells to bring the named protein to FLAG-tagged glucokinase (GCK); Myc marks an untargeted standard; higher = target protein stabilised (more abundant)
Details: target protein: 3xFLAG-MCP-GCK-ALFA reporter; HEK293 landing pad (RPLP)
Procedure, shortened: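 Sequencing of reverse-transcribed, amplified circular RNA barcodes from anti-FLAG and anti-Myc immunoprecipitates provided the readout for an ALFA-nanobody-fused binder library recombined into HEK293 landing-pad cells. Those cells were induced with 2 μg mL^−1 doxycycline, transfected with a plasmid expressing a FLAG-tagged target and a Myc-tagged standard, and lysed after 48 h. Target abundance is the per-binder median log2 ratio of FLAG to Myc barcode read proportions. Only barcodes at a proportion of ≥10^−7 in both replicates and binders with ≥3 barcodes per replicate were kept, with a 10^−6 pseudocount added before the two replicates were pooled.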

| Binder | median log2 fold change |
| --- | --- |
| B1 | 0.125 |
| B2 | 0.317 |
| B3 | 0.129 |
| B4 | 0.103 |
| B5 | 0.0923 |
| B6 | 0.358 |
| B7 | -0.531 |
| B8 | 0.236 |
| B9 | 0.308 |
| B10 | 0.192 |
| B11 | 0.283 |
| B12 | 0.154 |
| B13 | 0.0894 |
| B14 | -0.148 |
| B15 | 0.08 |
| B16 | -0.216 |
| B17 | -0.0149 |
| B18 | 0.242 |
| B19 | 0.128 |
